Assay results as given in PubChem BioAssay AID2528 (National Center for Advancing Translational Sciences (NCATS), 2010).
Out of some 350,000 compounds screened, about 700 (0.2%) were called active. Calls follow the shape of the dose curve; as a rule, active = well fitted inhibition curve with a large enough effect; inconclusive = small, poorly fitted or top-dose-only effect; inactive = flat fitted curve, though single readings scatter. The entries are a selection whose mix differs from that of the whole data set. A structure can be active in one record and inactive in another.

biological target: RecQ-like DNA helicase BLM (Homo sapiens) (UniProt P54132); assay: qHTS Assay for Inhibitors of Bloom's syndrome helicase (BLM); conditions: recombinant BLM DNA unwinding, fluorescence dequenching; series mostly up to 56.1 µM; activity change, negative = inhibition: at the top concentration; also: nearly all actives have a fitted effect of over 35% in size;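 as to activity change, negative = inhibition: plate controls were vehicle for no effect and no enzyme for full effect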
Potency is read from the fitted curve at half-maximal effect.

Sequence of UniProt P54132 (P54132 whole entry, looked up): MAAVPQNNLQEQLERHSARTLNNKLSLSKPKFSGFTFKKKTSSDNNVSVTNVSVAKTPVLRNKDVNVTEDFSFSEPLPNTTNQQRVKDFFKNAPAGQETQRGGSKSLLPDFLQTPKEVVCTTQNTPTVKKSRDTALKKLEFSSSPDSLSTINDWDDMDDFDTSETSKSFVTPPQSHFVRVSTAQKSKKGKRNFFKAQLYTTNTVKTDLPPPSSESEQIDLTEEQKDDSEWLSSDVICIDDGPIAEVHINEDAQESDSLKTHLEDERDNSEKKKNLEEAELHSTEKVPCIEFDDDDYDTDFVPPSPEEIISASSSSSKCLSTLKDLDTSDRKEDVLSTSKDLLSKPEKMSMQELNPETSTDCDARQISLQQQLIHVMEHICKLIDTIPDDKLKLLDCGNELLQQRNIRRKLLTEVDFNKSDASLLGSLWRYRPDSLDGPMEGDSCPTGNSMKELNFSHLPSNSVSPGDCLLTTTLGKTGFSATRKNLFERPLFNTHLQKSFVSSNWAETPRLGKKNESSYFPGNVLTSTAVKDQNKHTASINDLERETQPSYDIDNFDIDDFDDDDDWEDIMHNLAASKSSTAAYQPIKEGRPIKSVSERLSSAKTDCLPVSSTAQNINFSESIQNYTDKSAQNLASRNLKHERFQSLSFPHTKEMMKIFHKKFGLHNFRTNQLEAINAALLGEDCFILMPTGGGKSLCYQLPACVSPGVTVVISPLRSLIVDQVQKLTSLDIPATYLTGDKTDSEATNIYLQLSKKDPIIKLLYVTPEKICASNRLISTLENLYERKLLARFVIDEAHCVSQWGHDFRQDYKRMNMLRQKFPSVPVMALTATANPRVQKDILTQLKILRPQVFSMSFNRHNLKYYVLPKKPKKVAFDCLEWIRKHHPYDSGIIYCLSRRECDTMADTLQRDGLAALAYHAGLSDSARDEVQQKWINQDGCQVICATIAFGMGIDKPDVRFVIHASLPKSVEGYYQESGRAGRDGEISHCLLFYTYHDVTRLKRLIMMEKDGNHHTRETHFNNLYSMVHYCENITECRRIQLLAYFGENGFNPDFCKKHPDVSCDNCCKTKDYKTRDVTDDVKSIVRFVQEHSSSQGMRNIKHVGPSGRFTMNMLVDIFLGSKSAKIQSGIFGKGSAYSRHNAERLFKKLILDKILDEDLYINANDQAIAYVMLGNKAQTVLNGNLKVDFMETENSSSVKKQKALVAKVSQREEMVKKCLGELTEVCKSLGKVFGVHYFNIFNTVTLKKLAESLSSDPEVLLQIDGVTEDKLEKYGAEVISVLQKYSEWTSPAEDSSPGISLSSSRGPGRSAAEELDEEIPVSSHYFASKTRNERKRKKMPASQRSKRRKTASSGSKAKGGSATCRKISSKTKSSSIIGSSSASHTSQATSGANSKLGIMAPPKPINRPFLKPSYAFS

Q: With `COCCc1ccc(OC[C@H](O)CNC(C)C)cc1` as the compound, how does the “activity change, negative = inhibition” value read?
A: inactive: -10.2%

Q: `CN(C)CCCN1c2ccccc2Sc2ccc(C(F)(F)F)cc21` was tested. Which Potency did it give?
A: inactive

Q: How did the Potency turn out when `CCCCNC(=O)c1ccc2nc(-c3ccco3)c(-c3ccco3)nc2c1` was run?
A: active: 15.8 µM

Q: How did the “activity change, negative = inhibition” value turn out when `CC12CCC(=O)C=C1CCC1C2CCC2(C)C1CC[C@]2(O)C(=O)CO` (stereo partly specified) was run?
A: inactive: -0.117%

Q: `COC(=O)C1=C(C)NC(C)=C([N+](=O)[O-])C1c1ccccc1C(F)(F)F` (stereo unspecified) was tested. Which “activity change, negative = inhibition” value did it give?
A: inactive: -14.8%

Q: Which Potency does the source give for `COCCCCC(=NOCCN)c1ccc(C(F)(F)F)cc1` here?
A: inactive

Q: Which “activity change, negative = inhibition” value does the source give for `C#C[C@]1(O)CCC2C3CCC4=Cc5oncc5C[C@@]4(C)C3CC[C@@]21C` (stereo partly specified) here?
A: inactive: 1.1%

Q: With `CN(Cc1cnc2nc(N)nc(N)c2n1)c1ccc(C(=O)N[C@H](CCC(=O)O)C(=O)O)cc1` as the compound, how does the “activity change, negative = inhibition” value read?
A: inactive: -4.15% [at 21.4 µM]

Q: For `CN1CCN(C2=Nc3ccccc3Oc3ccc(Cl)cc32)CC1`, which Potency is on record?
A: inactive

Q: With `CC(=O)OCC(=O)[C@@]1(O)CC[C@H]2[C@@H]3CCC4=CC(=O)CC[C@]4(C)[C@H]3C(=O)C[C@@]21C` as the compound, how does the “activity change, negative = inhibition” value read?
A: inactive: 0.0933%

Q: With `O=C1c2c(O)cc(O)cc2OC(c2ccc(O)c(O)c2)C1O` (stereo unspecified) as the compound, how does the “activity change, negative = inhibition” value read?
A: inactive: -1.39%

Q: Which “activity change, negative = inhibition” value does the source give for `O=C1c2c(O)cc(O)cc2O[C@H](c2ccc(O)c(O)c2)[C@H]1O` here?
A: inactive: -3.83%

Q: For `CCOC(=O)c1ccc2c(c1)C1C=CCC1C(C(=O)O)N2` (stereo unspecified), which Potency is on record?
A: active: 28.2 µM

Q: With `C[C@@H]1CC[C@@H]2C(=O)N3[C@@H](CC[C@@H](C)[C@@H]3c3ccc(-c4ccco4)cc3)C(=O)N2[C@H]1c1ccc(-c2ccco2)cc1` as the compound, how does the activity change, negative = inhibition read?
A: inactive: -22.8% [at 12.4 µM]

Q: Which “activity change, negative = inhibition” value does the source give for `Oc1ccc(NCc2ccccc2OCc2ccccc2F)cc1` here?
A: inactive: -7.1%

Q: For `O=C(/C=C\c1ccc(O)c(O)c1)O[C@@H](Cc1ccc(O)c(O)c1)C(=O)O`, which “activity change, negative = inhibition” value is on record?
A: inactive: -0.945%

Q: With `O=C(C[n+]1ccc(C(=O)N/N=C/c2ccc(OCc3ccccc3)cc2)cc1)c1ccccc1` as the compound, how does the Potency read?
A: active: 35.5 µM

Q: For `Oc1ccc(O)cc1`, which Potency is on record?
A: inactive

Q: How did the Potency turn out when `C[C@H]1C[C@H]2[C@@H]3CCC4=CC(=O)C=C[C@]4(C)[C@@]3(Cl)[C@@H](O)C[C@]2(C)[C@@]1(O)C(=O)CO` was run?
A: inactive

Q: `CC(C)Cn1c(N)c(C(=O)NCc2cccs2)c2nc3ccccc3nc21` was tested. Which Potency did it give?
A: active: 31.6 µM

Q: With `CCCCCCCCCCCCCCC[C@@H](O)[C@@H](N)CO` as the compound, how does the Potency read?
A: inactive

Q: Which “activity change, negative = inhibition” value does the source give for `CN(C)[C@H]1C(=O)C(C(=O)NCN2CCCC2)=C(O)[C@]2(O)C(=O)C3=C(O)c4c(O)cccc4[C@@](C)(O)[C@H]3C[C@@H]12` here?
A: inactive: -13.4% [at 21.4 µM]

Q: For `CC(=O)Oc1cc(C(C)C)c(OCCN(C)C)cc1C`, which Potency is on record?
A: inactive

Q: How did the Potency turn out when `CC1=C(/C=C/C(C)=C/C=C/C(C)=C/C(=O)Nc2ccc(O)cc2)C(C)(C)CCC1` was run?
A: inactive

Q: `CN=C(N)NCCC[C@H](N)C(=O)O` was tested. Which “activity change, negative = inhibition” value did it give?
A: inactive: -0.67%

Q: With `FC(F)(F)c1cc(CO[C@H]2CCCN[C@H]2c2ccccc2)cc(C(F)(F)F)c1` as the compound, how does the “activity change, negative = inhibition” value read?
A: inactive: -1.84%
